# Test results published in PubChem BioAssay AID2451 (National Center for Advancing Translational Sciences (NCATS), 2010).
# Screen size: about 290,000 compounds; about 2,100 (0.72%) were called active. Inconclusive means that the source gave no clear call. Such entries were picked first, then a sample of the others. Calls come from the whole dose curve; as a rule, active = well fitted inhibition curve with a large enough effect; inconclusive = small, poorly fitted or top-dose-only effect, or effect the other way; inactive = flat fitted curve, though single readings scatter. A potency beside an inconclusive call is a rough fit, not a confirmed value.
# Biological target: Fructose-bisphosphate aldolase (Giardia intestinalis (strain ATCC 50803 / WB clone C6)) (UniProt A8B2U2)
# UniProt A8B2U2, sequence (A8B2U2 whole entry, looked up): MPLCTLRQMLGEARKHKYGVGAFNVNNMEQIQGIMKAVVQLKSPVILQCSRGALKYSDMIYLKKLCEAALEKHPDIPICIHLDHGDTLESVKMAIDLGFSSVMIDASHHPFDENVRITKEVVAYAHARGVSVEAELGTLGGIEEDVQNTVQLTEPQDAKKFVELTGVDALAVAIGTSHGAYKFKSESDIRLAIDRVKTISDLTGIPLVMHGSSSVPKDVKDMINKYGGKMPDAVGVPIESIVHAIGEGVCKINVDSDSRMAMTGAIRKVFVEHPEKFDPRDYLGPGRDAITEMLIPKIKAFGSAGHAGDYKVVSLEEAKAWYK
# Assay: qHTS Assay for Inhibitors of Fructose-1,6-bisphosphate Aldolase from Giardia Lamblia; note: nearly all actives have a fitted effect of over 55% in size
# Details: purified Giardia FBPA; activity, negative = inhibition: at 59.6 µM (top of the series) unless noted
# Method in brief: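 Giardia FBPA (40 nM reagent) was preincubated 10 min at RT with compound (up to 57.5 uM final), then substrate plus GAPDH/TPI/NAD/arsenate coupling system with diaphorase/resazurin was added; resorufin fluorescence (525/598 nm) was read after 20 min.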
# % is set by controls: 0 for no effect and ±100 for the full control effect; potency is the fitted concentration of half-maximal effect; tags give direction and shape of the fitted curve.
Compound,Potency,"activity, negative = inhibition"
CCOC(=O)C1CCN(CC(O)COCc2ccccc2)CC1 (stereo not drawn),"inconclusive: 22.4 µM [inhibitor, partial curve]",–
CCOC(=O)c1c(C)oc2c1cc(NS(=O)(=O)c1ccc(C(=O)O)cc1)c1ccccc12,"inconclusive: 20 µM [inhibitor, partial curve]",–
CCCCn1c(SCC(=O)c2ccc(O)c(O)c2)nc2ccsc2c1=O,"inconclusive: 6.29 µM [inhibitor, partial curve]",–
Cc1ccc(N2C(S)=C(C#N)C(=O)NC2c2cccs2)cc1 (stereo not drawn),"inconclusive: 14.1 µM [inhibitor, partial curve]",–
O=S(=O)(Nc1cccnc1Cl)c1ccc(F)cc1,–,inactive: -1.06%
CC(C)C(=O)NC(c1ccco1)c1ccc2cccnc2c1O (stereo not drawn),"inconclusive: 3.15 µM [inhibitor, single point]",–
COc1ccc2c(c1)O[C@@H](c1cccc(C(F)(F)F)c1)[C@H](OC(=O)Nc1cc(OC)c(OC)c(OC)c1)C2=O,–,inactive: -7.35%
CC(NC(=O)c1ccc(OC2CCN(C(=O)c3cccnc3)CC2)cc1)C1CC1 (stereo not drawn),–,inactive: 3.67%
COc1ccc(NC(=O)c2ccco2)cc1N,active: 39.8 µM,–
Clc1ccc2c(c1)C1OCCC1C(c1ccco1)N2 (stereo not drawn),–,inactive: -16.4%
O=c1[nH]c(=S)c2ncn(-c3ccccc3)c2[nH]1,active: 9.98 µM,–
CCOC(=O)c1nnn(-c2ccc([N+](=O)[O-])cc2[N+](=O)[O-])c1C,"inconclusive: 15.8 µM [inhibitor, partial curve]",–
CC(=O)Nc1ccc(OCC(O)Cn2nc(C)c(C(C)=O)c2C)cc1 (stereo not drawn),–,inactive: -7.57%
COc1ccc(OC)c(Nc2nc(-c3ccccc3O)nc3ccccc23)c1,–,inactive: -2.55%
CCN(CCO)c1ccc(N=Cc2c(O)n(C)c(=S)[nH]c2=O)cc1,"inconclusive: 44.6 µM [inhibitor, partial curve, poor fit]",–
O=C(NC(=S)Nc1ccc(S(=O)(=O)Nc2nccs2)cc1)c1cccc(F)c1,"inconclusive: 15.8 µM [inhibitor, single point]",–
COc1ccc(NC(=S)N2CCN(c3ncccn3)CC2)c(OC)c1,"inconclusive: 19.9 µM [inhibitor, single point]",–
O=C(c1ccco1)N1CCN(Cc2ccc(Cl)cc2)CC1,"inconclusive: 19.9 µM [inhibitor, partial curve]",–
O=C1Nc2ccc(NS(=O)(=O)c3cccs3)c3cccc1c23,active: 8.89 µM,–
C=CCc1cccc2cc(C(=O)NCc3cccnc3)c(=O)oc12,–,inactive: 0.518%
COc1ccc(C(=O)[C@H]2[C@H]3C(=O)N(c4ccc(C)cc4)C(=O)[C@H]3C3C=CC=NN32)cc1 (stereo partly drawn),"inconclusive: 19.9 µM [inhibitor, partial curve]",–
COc1ccc(C)cc1S(=O)(=O)Nc1cc(Cl)ccc1Cl,–,inactive: 0.384%
CCC(C)(C)NC(=O)C(c1ccc(C)o1)N(C(=O)c1csnn1)c1cccc(F)c1 (stereo not drawn),"inconclusive: 28.1 µM [activator, single point]",–
O=C(CCC(=O)Nc1ccc(Cl)cc1Cl)N/N=C/c1ccc([N+](=O)[O-])o1,"inconclusive: 15.8 µM [inhibitor, single point]",–

Compound,Potency,"activity, negative = inhibition"
O=C(CSc1nc2ncccc2[nH]1)Nc1c(F)cc(F)cc1Br,active: 25.1 µM,–
CC(C)[C@H](NC(=O)N1c2ccccc2NC(=O)[C@@H]1C(C)C)C(=O)N[C@@H](Cc1ccccc1)C(=O)O,"inconclusive: 28.2 µM [inhibitor, single point]",–
O=C(NC1CCCC1)c1cc2cc(Br)ccc2o1,–,inactive: -12.4%
COc1ccccc1-c1nnc(Nc2nc3c(OC)cccc3s2)o1,"inconclusive: 3.54 µM [activator, full curve]",–
O=C(Nc1nccs1)c1ccc2ccccc2c1,–,inactive: -7.87%
O=c1[nH]c(SCCOc2cccc3ccccc23)nc2ccccc12,–,inactive: -7.05%
C[C@@H]1CCC2[C@](C)(CO)[C@@H](O)CC[C@]2(C)[C@]12CCC(CO)(CCO)O2 (stereo partly drawn),–,inactive: 0.368%
CC1=C(C#N)C(=O)N(C2CCS(=O)(=O)C2)C(=O)/C1=C\c1ccc(C)o1 (stereo not drawn),active: 12.6 µM,–
O=C(Cc1ccccc1)N1CCN(Cc2cccnc2)CC1,"inconclusive: 15.8 µM [inhibitor, single point]",–
Cc1ccccc1N1CCN(CC(=O)Nc2nccs2)CC1,active: 11.2 µM,–
Cc1cccnc1CN1CCN(C(=O)c2cc(COc3ccc4ncccc4c3)on2)CC1,–,inactive: 0.0768%
CCOC(=O)C1=C(CSc2nc(C)ccc2C#N)OC(N)=C(C#N)C1c1cccc(OC)c1OC (stereo not drawn),"inconclusive: 7.94 µM [inhibitor, full curve]",–
COc1ccc(C(CCNCc2ccc(OC(C)C)cc2)C(C)C)cc1 (stereo not drawn),–,inactive: 1.7%
CC(C)Sc1sc(C(=O)O)c(-c2ccc(Cl)cc2)c1C#N,"inconclusive: 15.8 µM [activator, single point]",–
Cc1cccc(N2CCN(S(=O)(=O)c3ccc4c(c3)CCCN4C(=O)C3CCC3)CC2)c1C,–,inactive: 5.77%
Cc1ccc(NC(=O)CCNS(=O)(=O)c2ccc3[nH]c(=O)oc3c2)cc1F,"inconclusive: 22.4 µM [inhibitor, partial curve]",–
CC(=O)C1=C(C)OC(N)=C(C#N)C1c1ccco1 (stereo not drawn),"inconclusive: 15.8 µM [inhibitor, partial curve]",–
CNS(=O)(=O)c1ccc(OC)c(-c2nnc3c4ccccc4c(C)nn23)c1,–,inactive: -0.128%
NCCSC1CC(=O)N(c2ccc(F)cc2)C1=O (stereo not drawn),"inconclusive: 31.6 µM [inhibitor, single point]",–
COc1ccc(/C=C2\N=C(SC)NC2=O)cc1,"inconclusive: 22.4 µM [inhibitor, partial curve]",–
O=C(Nc1nc(-c2ccccn2)cs1)Nc1ccc(F)cc1F,"inconclusive: 2.82 µM [activator, partial curve]",–
Cc1[nH]n(-c2ccccc2)c(=O)c1C(C[N+](=O)[O-])c1ccc(Cl)cc1 (stereo not drawn),"inconclusive: 12.6 µM [inhibitor, partial curve]",–
c1ccc(-n2nnnc2Oc2cccc3cccnc23)cc1,"inconclusive: 15.8 µM [inhibitor, partial curve]",–
CCc1ccc(C2NC(C(=O)O)CS2)cc1 (stereo not drawn),"inconclusive: 17.7 µM [inhibitor, partial curve]",–
